The values below come from ChEMBL document CHEMBL4888484, “Replenishing the malaria drug discovery pipeline: Screening and hit evaluation of the MMV Hit Generation Library 1 (HGL1) against asexual blood stage Plasmodium falciparum ,using a nano luciferase reporter read-out” (2022).

SMILES strings stand for the structures. The campaign covered roughly 150,000 compounds. About 540 (0.36%) showed an effect of 50% or more. This is one part of the list.

As a reminder, the % Inhibition is the drop in the measured response relative to a control, in per cent.

This assay concerns Plasmodium falciparum. The experiment in a line: Primary screen in NF54 nanoGlo assay, in single point, at 2uM, 72h; a lower Z score goes with more inhibition. Format: functional, Erythrocyte. Particulars: timepoint 72 hour.
Take `Cc1cc(NC(=O)NC[C@@H]2Cc3ccccc3CO2)nn1C(C)C1CC1` (stereo not given in full): the “% Inhibition” value is listed as 1% and the Z score is -0.11.

Consider `CCCn1c(C)nnc1CN[C@@H](C)c1c(F)cccc1Cl`, for which the “% Inhibition” value is -16% and the Z score was found to be 2.42.

As for `Cc1nc(C(=O)NCc2ccco2)co1`, the “% Inhibition” value is recorded as -5% and the Z score was determined as 0.83.

As to `CN(CC(F)F)C(=O)Nc1nncs1`, the “% Inhibition” value is reported as -13% and the Z score came out at 1.8.

For `Cn1ccc(NC(=O)[C@@]2(C)CC2(Cl)Cl)n1`, the “% Inhibition” value is -10% and the Z score turned out to be 1.79.

In the case of `COCC(=O)N1CC(C(=O)NCCN2CCCC2)CCC1c1ccc(F)cc1` (stereo not given), the “% Inhibition” value was -3% and the Z score turned out to be 0.42.

In the case of `Cc1cc(C(=O)N(CC(=O)N2CCn3cccc3[C@H]2c2ccccc2F)C(C)(C)C)ccc1F`, the “% Inhibition” value is -14% and the Z score turned out to be 1.31.

Turning to `CCN(C(=O)c1cccc(=O)n1C)[C@H]1CCN(Cc2ccccc2)C1`, the “% Inhibition” value was -9% and the Z score is listed as 1.48.

As for `Cn1cccc1CN1CCC(CC2CC2)(NS(C)(=O)=O)CC1`, the “% Inhibition” value was -12% and the Z score is on record as 2.27.

As to `Cc1cc(OCc2csc([C@@H]3CCCO3)n2)nn1C`, the “% Inhibition” value is recorded as -11% and the Z score came to 1.46.

In the case of `O=C(Nc1ccc(S(=O)(=O)Nc2nccs2)cc1)[C@H]1CCCN(c2cc(C3CC3)ncn2)C1`, the “% Inhibition” value stood at 11% and the Z score is on record as -2.06.

Consider `Cc1nnsc1CN(C)C(=O)CCN1CCCCO1`, for which the “% Inhibition” value is listed as -14% and the Z score stood at 2.73.

Consider `COc1ccccc1-c1nn(Cc2ccccc2)cc1[C@@H]1NC(=O)c2ccccc2N1`, for which the “% Inhibition” value is reported as -35% and the Z score is reported as 4.14.

In the case of `CC(=O)N[C@H](CC1CCC1)C(=O)NCC(C)(C)c1ncccc1C`, the “% Inhibition” value is -12% and the Z score is reported as 1.48.

`Cc1csc(CNC(=O)Cc2csc(C(C)C)n2)n1`: the “% Inhibition” value is recorded as -18% and the Z score worked out at 2.47.

On to `CCCOC[C@H]1CCN(Cc2noc(CC(C)C)n2)C1`, for which the “% Inhibition” value is reported as -5% and the Z score is reported as 0.49.

Take `Cc1cccnc1-n1nc(-c2ccccc2)nc1Cn1cc(C)c(=O)[nH]c1=O`: the “% Inhibition” value is given as -10% and the Z score came to 1.41.

With `Cn1cccc1-c1n[nH]c(C2CCCCC2)n1`, the “% Inhibition” value is on record as -12% and the Z score was determined as 1.78.

Turning to `O=C(Nc1cc(Cl)cc(Cl)c1)C(=O)NC1CCCC1`, the “% Inhibition” value is given as 6% and the Z score was -0.72.

In the case of `O=c1[nH]c(=O)n(-c2ncnc3c2cnn3-c2ccccc2)cc1Cl`, the “% Inhibition” value came out at 38% and the Z score is -5.17.

Regarding `CCc1nc(NCc2nccn2CC)c2ccsc2n1`, the “% Inhibition” value is 4% and the Z score is on record as -0.68.

For the molecule `CCN1C[C@H](CN(C)CC(=O)N(C)Cc2ccsc2)Oc2ccccc21`, the “% Inhibition” value is listed as -7% and the Z score was found to be 1.06.

In the case of `COc1ccc2[nH]c3c(c2c1)CCN(C(=O)c1ccc(C)c(C)c1)[C@@H]3c1ccccc1OC`, the “% Inhibition” value amounted to 84% and the Z score is -11.27.

In the case of `COc1cccc(CNCc2ccc(F)c(CO)c2)n1`, the “% Inhibition” value turned out to be 4% and the Z score is listed as -0.5.

In the case of `CCn1nccc1C(=O)Nc1nnc(-c2ccco2)o1`, the “% Inhibition” value is given as -6% and the Z score is 1.08.

`CCCn1nnn(-c2cc(N(S(=O)(=O)CC)S(=O)(=O)CC)c(Cl)cc2F)c1=O`: the “% Inhibition” value is recorded as -15% and the Z score stood at 1.78.

On to `CN1CCOc2ccc(C(=O)N3CC[C@H](CCO)C3)cc21`, for which the “% Inhibition” value is given as -4% and the Z score amounted to 0.59.

`COCC(=O)N[C@@H]1CN(C(=O)c2ccoc2C(C)C)C[C@H]1c1nccn1C`: the “% Inhibition” value was -9% and the Z score is reported as 1.51.

In the case of `Cc1nc(NC(=O)c2cccc(CC#N)c2)c(C(=O)NCCO)n1C`, the “% Inhibition” value is 10% and the Z score is listed as -0.92.

For `Cc1ccc2oc(C(=O)N3CCOC[C@H]3C#N)cc2n1`, the “% Inhibition” value is -17% and the Z score worked out at 1.97.

In the case of `CC(C)c1csc(CN2CCc3[nH]cnc3[C@@H]2c2ccoc2)n1`, the “% Inhibition” value is listed as -5% and the Z score is 0.68.

On to `Cc1[nH]c(CN2CCN3C(=O)CN(C)C(=O)[C@@H]3C2)cc1C#N`, for which the “% Inhibition” value is -4% and the Z score turned out to be 0.74.

`CC1CN(C(=O)c2c[nH]c(=O)[nH]2)C(C)CO1` (stereo not given): the “% Inhibition” value is on record as -11% and the Z score is 1.81.

As for `Cc1ccc([C@H](O)c2ccccn2)cc1NC(=O)C1CN(C2CCCCC2)C1`, the “% Inhibition” value is on record as 1% and the Z score is given as -0.07.

As to `CCCCNC(=O)N(CC(=O)N(Cc1ccccc1)Cc1ccc(C)o1)C(C)C`, the “% Inhibition” value came out at 2% and the Z score was -0.38.

Consider `OCCNc1nc(-c2c[nH]c3ccccc23)ncc1F`, for which the “% Inhibition” value is on record as -13% and the Z score is 1.6.

Regarding `C[C@H](NC(=O)Nc1nccn(C)c1=O)c1ncc(-c2ccccc2)o1`, the “% Inhibition” value is on record as -7% and the Z score is listed as 0.74.

As for `Cc1cc(C(=O)N[C@@H](C)C(C)(F)F)cnn1`, the “% Inhibition” value was 7% and the Z score is recorded as -0.96.

As for `C[C@H](Oc1cccc(-n2ccc(-c3cnccn3)n2)c1)C(N)=O`, the “% Inhibition” value is -12% and the Z score is 1.69.

Regarding `O=C(Nc1ccsc1C(=O)N[C@H]1CCCOCC1)c1ccncc1`, the “% Inhibition” value is -8% and the Z score turned out to be 1.19.

Consider `O=S(=O)(CCc1ccccc1)c1nnc[nH]1`, for which the “% Inhibition” value is given as -6% and the Z score came to 0.83.

Turning to `CCc1ccccc1CC(=O)N[C@H](C#N)C1CCCCC1`, the “% Inhibition” value is reported as -1% and the Z score is given as 0.24.

For `COC(=O)[C@H](NCC(=O)Nc1nc(C)cs1)c1c(C)cccc1C`, the “% Inhibition” value was determined as 1% and the Z score was -0.08.

In the case of `CCOc1cc(CCCNC(=O)c2cnn(C)c2)ccc1OC`, the “% Inhibition” value turned out to be 1% and the Z score is -0.25.

With `CC(C)[C@H](Cn1nccn1)NC(=O)CCc1c(Cl)cccc1Cl`, the “% Inhibition” value is reported as -3% and the Z score is recorded as 0.45.

As to `CCN1CCC(N(CCc2ccccn2)Cc2[nH]cnc2C)CC1`, the “% Inhibition” value was -19% and the Z score is on record as 1.99.

In the case of `Cn1cc(NC(=O)N2CCOCC(F)(F)C2)c(C2CC2)n1`, the “% Inhibition” value came to 1% and the Z score was -0.18.

Turning to `CCc1cc(CC)n(-c2nc3c(c(=O)[nH]c(=O)n3C)n2CCc2ccccc2)n1`, the “% Inhibition” value is listed as -26% and the Z score came out at 2.37.

Turning to `C[C@H](N)c1ccc(CNC(=O)c2cn3c(n2)CCCC3)cc1`, the “% Inhibition” value was found to be 14% and the Z score is recorded as -1.63.

As to `COc1ccc(C[C@@H](c2nc3ccccc3[nH]2)c2ncc(-c3ccccc3)s2)cc1`, the “% Inhibition” value is given as -6% and the Z score stood at 0.71.

Turning to `Cc1ccc(S(=O)(=O)Nc2cc3nc4ccccc4nc3n2CCc2ccccc2)cc1`, the “% Inhibition” value stood at 100% and the Z score is on record as -10.64.

With `COc1ccc([C@@H]2CCCN2C(=O)CN2CCCC2=O)cc1OC`, the “% Inhibition” value is given as -36% and the Z score was determined as 4.18.

For the molecule `O=C(CCC1CCCC1)NCCn1ccnc1`, the “% Inhibition” value is -25% and the Z score is recorded as 2.9.

For the molecule `OCC1CCCN(C2CCc3ccccc3C2)C1` (stereo not given), the “% Inhibition” value is reported as -17% and the Z score turned out to be 2.51.

Regarding `CC(C)(C)c1nccn1C[C@H]1COc2ccccc2O1`, the “% Inhibition” value is -12% and the Z score was 1.86.
